Results: PubChem BioAssay AID1508623 (National Center for Advancing Translational Sciences (NCATS), 2021)
The whole screen tested about 48,000 compounds, of which about 450 (0.94%) were called active. Not shown: some 19% with an inconclusive outcome. The call rests on the fitted dose curve; in most records, active means well fitted inhibition curve with a large enough effect; inconclusive means small, poorly fitted or top-dose-only effect; inactive means no such curve, though single readings can be large or run the other way. Some of the results follow.

experiment: Primary qHTS for Identification of Small Molecule Inhibitors of Huntingtin Promoter Activity; details: HEK293 HTT promoter firefly luciferase reporter (activity 0% = vehicle and -100% = no light), 24 h; series mostly up to 57.5 µM; activity change, negative = inhibition: at the top concentration; further: nearly all actives have a fitted effect of over 50% in size
Outline: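 Firefly luciferase readout (Dual-Glo, 10 min RT) after 24 h, 37 °C compound exposure (final up to 57.5 uM) of HEK293 reporter cells cultured 24 h beforehand; PTC124 at 50 uM final as control inhibitor; activity scaled vehicle 0%, zero RLU -100%.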
Potency means the concentration at half of the fitted maximal effect.

Row | Structure (SMILES) | activity change, negative = inhibition | Potency
1 | COc1ccc(OC)c(CNC(=O)c2c3c(nc4ccccc24)C(=O)N(C2CCCCC2)C3)c1 | inactive: -0.669% | –
2 | CCC(=O)N1CCc2cc(Br)cc(S(=O)(=O)N3CCN(c4ccc(C)cc4)C(C)C3)c21 (stereo not drawn) | inactive: -0.642% | –
3 | CCOC(=O)c1c(C)[nH]c(C)c1S(=O)(=O)N1CCC(C(=O)N2CCN(c3ccccc3)CC2)CC1 | inactive: -12.7% | –
4 | Cc1ccccc1-c1noc(-c2cccnc2NCc2ccco2)n1 | inactive: 49.2% | –
5 | CCOCCn1ccc2c(OCC(=O)NCc3ccc(C)cc3)cccc2c1=O | inactive: 0% | –
6 | CN(C)CCNC(=O)c1ccc2c(c1)N(Cc1ccccc1)C(=O)c1ccccc1S2(=O)=O | inactive: -15.3% | –
7 | COc1ccc(-c2cn3nc(N4CCCC(C(=O)Nc5cccc(Cl)c5C)C4)sc3n2)cc1 (stereo not drawn) | inactive: -18.2% | –
8 | O=C1c2[nH]nc(-c3ccccc3O)c2C(c2cccc(O)c2)N1Cc1ccncc1 (stereo not drawn) | inactive: -9.04% | –
9 | O=C(Cn1cc(C(=O)c2ccncc2)c(=O)c2cc(F)ccc21)Nc1ccc(Cl)cc1 | inactive: -26% | –
10 | COCCCNC(=O)N1[C@H](c2cccs2)[C@@H](C)C(=O)[C@@H](C)[C@@H]1c1cccs1 | inactive: -23.6% | –
11 | O=C(CN1C(=O)COc2ccc(S(=O)(=O)N3CCCC3)cc21)N1CCN(c2ccc(Cl)cc2)CC1 | inactive: -21.9% | –
12 | COc1cccc(-n2cc(C(=O)OCc3ccc(F)c(F)c3)c3ccccc3c2=O)c1 | inactive: -14% | –
13 | C=CC(=O)Nc1cccc(Nc2nc(NC3CCC(N(C)C)CC3)nc3c2ncn3C(C)C)c1 (stereo not drawn) | inactive: -38.2% | –
14 | CCCCNc1nc2c(c(=O)n(C)c(=O)n2C)n1CC(O)COc1ccccc1C (stereo not drawn) | inactive: -30% | –
15 | Cc1nn(C)c2c1c(C(F)(F)F)cc(=O)n2CC(=O)N1CCCCC1 | inactive: 9.49% | –
16 | O=C(O)c1cccc(Nc2ncnc3ccc(Br)cc23)c1 | inactive: -6.72% | –
17 | CCOC(=O)c1c(NC(=O)c2ccc(Br)cc2)sc2c1CCCC2 | inactive: 14.1% | –
18 | COc1ccc(C(=O)Nc2nnc(S(=O)(=O)N3CCCc4ccccc43)s2)cc1 | inactive: -1.03% | –
19 | Cc1ccc2nc(-c3cccc(NC(=O)c4ccc(Br)o4)c3)oc2c1 | inactive: 10.3% | –
20 | CCOc1ccccc1-n1nnc(-c2nc(-c3ccccc3C)no2)c1C | inactive: -3.69% | –
21 | Cc1ccc(NC(=O)CSc2ccc3nnc(CCNS(=O)(=O)c4ccccc4)n3n2)cc1Cl | inactive: -11.4% | –
22 | Cc1ccc(Cl)cc1NC(=O)N1CCC(CN2CCCCCC2)CC1 | inactive: -13.8% | –
23 | Cc1ccc2cc(CN(C)C(=O)c3cccc(Cl)c3)c(=O)[nH]c2c1 | inactive: -33.1% | –
24 | Cc1ccccc1NC(=O)c1cccc2c(=O)c3c([nH]c12)CCCC3 | inactive: -22.7% | –
25 | Nc1ccc(/C=C/c2ccc(N)cc2S(=O)(=O)O)c(S(=O)(=O)O)c1 | inactive: -2.85% [at 0.739 µM] | –

Row | Structure (SMILES) | activity change, negative = inhibition | Potency
26 | Cc1cccc(Nc2ccccc2C(=O)O)c1C | inactive: 8.57% | –
27 | CCCCC(=O)OCc1cc(=O)n2nc(C3CCCCC3)sc2n1 | inactive: -13.7% | –
28 | CCC1CN(C(=O)Nc2cc(C)ccc2OC)c2cc(Cl)ccc2O1 (stereo not drawn) | inactive: -18.1% | –
29 | COC(=O)c1ccc(NC(=O)CC2Nc3cc(C)c(C)cc3NC2=O)cc1 (stereo not drawn) | – | active: 25.1 µM
30 | Cc1cc(C)n(-c2nc3ccccc3nc2Nc2ccc(Cl)c(Cl)c2)n1 | inactive: -2.13% | –
31 | Cc1cc(C)cc(OCC(=O)NC(Cc2c[nH]c3ccccc23)C(=O)O)c1 (stereo not drawn) | inactive: -24.4% | –
32 | Cc1cccc(OCC(=O)Nc2c(C(=O)N3CCN(c4ccccc4F)CC3)oc3ccccc23)c1 | inactive: -0.532% | –
33 | CCOc1cc(N)c(Cl)cc1C(=O)NCC1CN(Cc2ccc(F)cc2)CCO1 (stereo not drawn) | inactive | –
34 | CCCc1cc(=O)n2[nH]c(NC(=O)c3ccccc3Cl)nc2n1 | inactive: -6.07% | –
35 | CCOC(=O)N1CCN(C(=O)CN(c2cccc(Cl)c2)S(=O)(=O)c2ccccc2)CC1 | inactive: -17% | –
36 | CCCN(C(=O)c1cc2c(=O)oc3ccccc3c2s1)c1cccc(Cl)c1 | inactive: -0.255% | –
37 | CCOC(=O)c1ccc(N2C(=O)c3[nH]nc(-c4ccc(OC)cc4)c3C2c2ccccc2Cl)cc1 (stereo not drawn) | inactive: -2.06% | –
38 | O=C(Nc1ccccc1)N(Cc1cccs1)c1ccc(F)cc1 | inactive: -22% | –
39 | CCOC(=O)CSc1nc2cc3c(cc2c(=O)n1CCCC(=O)NCCc1ccc(OC)c(OC)c1)OCO3 | inactive: -15.4% | –
40 | C[n+]1ccccc1/C=N/O | inactive: 1.65% | –
41 | COc1cccc(CNC(=O)c2cc(S(=O)(=O)N3CCCCCC3)cn2C)c1 | inactive: -18.5% | –
42 | CCOC(=O)c1sc(N2C(=O)c3oc4ccc(C)cc4c(=O)c3C2c2ccccc2F)nc1C (stereo not drawn) | inactive: 5.42% | –
43 | CCc1cccc(NS(=O)(=O)c2ccc3c(c2)n(C)c(=O)c(=O)n3C)c1 | inactive: -28.2% | –
44 | Cc1ccc(CNC(=O)CCCn2nc(C)c3c(C)n(-c4ccccc4)nc3c2=O)cc1 | inactive: -21.7% | –
45 | CCc1nonc1NC(=O)c1oc2ccc(C)cc2c1C | inactive: 59.9% | –
46 | CCOc1ccc(N2C(=O)c3n[nH]c(-c4cccs4)c3C2c2cccc(F)c2)cc1 (stereo not drawn) | inactive: -14.3% | –
47 | CCOC(=O)c1ccc(-n2c(-c3ccc(C)cc3)c(C)n3c4c(=O)n(C)c(=O)n(C)c4nc23)cc1 | inactive: 0.588% | –
48 | COc1ccc(-c2cc(-c3ccc4c(c3)NC(=O)CO4)nc3c2COc2ccc(F)cc2-3)cc1 | inactive: -7.92% | –
49 | CN(C)c1ccc(-c2nc(-c3ccco3)no2)cc1[N+](=O)[O-] | inactive: -17.8% | –
50 | CCN(CC)S(=O)(=O)c1ccc2c(c1)N(CC(=O)N1CCN(c3cccc(OC)c3)CC1)C(=O)CO2 | inactive: -15.7% | –

Row | Structure (SMILES) | activity change, negative = inhibition | Potency
51 | CCOc1ccccc1CNC(=O)c1ccc2c(c1)nc1n2CCCCC1 | inactive: 29.4% | –
52 | Cc1c(Nc2nc3ccccc3n3c(C)nnc23)cccc1C(=O)O | inactive: -8.55% | –
53 | Cc1ccc(NC(=O)N2CC3CCCN3c3ccccc32)c(C)c1 (stereo not drawn) | inactive: -9.35% | –
54 | Cc1ccc(-c2cc(C(=O)N(Cc3ccc(C(C)(C)C)cc3)Cc3ccco3)no2)cc1 | inactive: 2.99% | –
55 | COc1ccc(NC(=O)c2ccco2)cc1NC(=O)COc1ccc(Cl)c(C)c1 | inactive: -37.6% | –
56 | Cc1cc(N2CCN(c3cccc(C(F)(F)F)c3)CC2)n2nc(-c3ccccc3)nc2n1 | inactive: 18.9% | –
57 | CCc1cccc(C)c1NC(=O)CCn1c(=O)c2cccn2c2ccccc21 | inactive: 1.36% | –
58 | CC(C)C(=O)NCC1(N(C)C)CCCCC1 | inactive: 2.39% | –
59 | CCOc1ccc(C(=O)Nc2c(C(=O)N3CCN(c4ccccc4F)CC3)oc3ccccc23)cc1 | inactive: 6.97% | –
60 | Cc1ccc(NS(=O)(=O)c2cc3[nH]c(=O)c(=O)[nH]c3cc2C)cc1Cl | inactive: -3.21% | –
61 | COc1ccc(N2CCN(Cc3cccn3-c3nnc(N4CCN(C5CCCCC5)CC4)s3)CC2)cc1 | inactive: -34.4% | –
62 | CCn1cc(C(=O)N2CCN(c3cc(C)ccc3C)CC2)c(=O)c2cc(S(=O)(=O)N3CCCCC3)ccc21 | inactive: -16.2% | –
63 | Cc1nc(SC(C)C(=O)Nc2ccccc2Cl)cc(-c2ccccc2)n1 (stereo not drawn) | inactive: -25.8% | –
64 | Cc1ccc([N+](=O)[O-])cc1S(=O)(=O)N1CCn2cccc2C1c1ccccc1 (stereo not drawn) | inactive: 9.19% | –
65 | CC(Oc1ccc(Br)cc1)C(=O)Nc1ncn[nH]1 (stereo not drawn) | inactive: -6.54% | –
66 | COc1ccc(NC(=O)CCc2nnc3n(Cc4ccccc4Cl)c(=O)c4ccccc4n23)cc1 | inactive: -4.7% | –
67 | Cc1ccc2nc(-c3ccc(Cl)c(NC(=O)COc4ccc(C(C)C)cc4)c3)oc2c1 | inactive: 17.1% | –
68 | Cc1ccc(C)c(NC(=O)C2CCCN(S(=O)(=O)c3cn(C)cn3)C2)c1 (stereo not drawn) | inactive: -5.45% | –
69 | CC(N)C(=O)OC(C)(C)Cc1ccc(Cl)cc1 (stereo not drawn) | inactive: -9.22% | –
70 | COc1ccc(Br)cc1CNC(=O)CCSCc1ccc(C)cc1 | inactive: -29.3% | –
71 | Cc1ccc(S(=O)(=O)N2CCN(Cc3nc4ccc(C)cc4o3)CC2)cc1 | inactive: -17.1% | –
72 | O=C(Cn1cc(S(=O)(=O)c2ccccc2)c(=O)c2cc3c(cc21)OCO3)Nc1ccc(Cl)cc1 | inactive: -25.4% | –
73 | CCNc1cc(N2CCN(C3CCCCC3)CC2)c2noc3c2c1C(=O)c1ccccc1-3 | inactive: -2.73% | –
74 | CSc1ccc(CCNC(=O)c2ccc(-c3nc(COc4ccc(C)cc4)c(C)o3)cc2)cc1 | inactive: -11.2% | –
75 | CCOC(=O)CSc1nc2ccccc2c(=O)n1-c1cccc(C)c1 | inactive: -17.8% | –

Row | Structure (SMILES) | activity change, negative = inhibition | Potency
76 | O=C(O)Cc1ccc(NC2(c3ccccc3)C(=O)c3ccccc3C2=O)cc1 | inactive: -1.37% | –
77 | COC(=O)c1ccccc1NC(=O)C1=C(C)C(=O)OC12CCCCCC2 | inactive: -5.94% | –
78 | COc1ccc(C(=O)Nc2ccccc2SCc2cc(=O)c3cccc(C)c3[nH]2)cc1 | inactive: 7.27% | –
79 | O=C(O)Cc1sc(Nc2ccccc2)nc1-c1ccccc1 | inactive: 53.2% | –
80 | COc1ccc(NC(=O)CSc2nc3ccccc3n2CC(=O)N2CCCCC2C)cc1 (stereo not drawn) | inactive: -24.1% | –
81 | COc1ccc(-c2nc3ccc(C4=NNC(=O)CC4C)cc3[nH]2)cc1 (stereo not drawn) | inactive: 28.5% | –
82 | Cc1nn(CCC(=O)NCc2ccc(Cl)cc2)c(=O)c2nn(-c3ccccc3)c(C)c12 | inactive: -18.7% | –
83 | CCOc1cccc(CC(=O)NCc2ccc3c(c2)CCN3C(C)=O)c1OCC | inactive: -6.35% | –
84 | CCC(C)NC(=O)CCc1c(C)nc2c(c(C)nn2-c2ccc(C)cc2)c1C (stereo not drawn) | inactive: -13.4% | –
85 | COCC(C)NC(=O)c1cc2c(=O)n3cccc(C)c3nc2s1 (stereo not drawn) | inactive: 26.9% | –
86 | O=[N+]([O-])c1cc(-c2nc(-c3ccco3)no2)ccc1NCc1ccccc1 | inactive: 14.6% | –
87 | CN(CC=CC#CC(C)(C)C)Cc1cccc2ccccc12 | inactive: 1.41% | –
88 | CCN(CC)CCNC(=O)COc1ccc(OC)cc1 | inactive: 6.94% | –
89 | COc1ccc(Cn2c(CO)cnc2SCc2ccc(F)cc2)cc1 | – | active: 31.6 µM
90 | CCc1ccc(Sc2cc(C(=O)O)c3ccccc3n2)cc1 | inactive: 0.776% | –
91 | COc1ccc(-n2nc(C(=O)N(C)c3cc(Cl)ccc3OC)c3c4ccccc4n(C)c3c2=O)cc1 | inactive: -8.73% | –
92 | Cc1ccc(Cc2nc3ccccc3nc2SCC(=O)N2CCN(c3ccccc3)CC2)cc1 | inactive: -0.206% | –
93 | CCOc1ccccc1NC(=O)C1=C(C)Nc2ncnn2C1c1ccc(NC(C)=O)cc1 (stereo not drawn) | inactive: -4.44% | –
94 | Cc1ccc(NC(=O)CC2Nc3cc(C)c(C)cc3NC2=O)c(C)c1 (stereo not drawn) | inactive: -27.4% | –
95 | Cc1nn(CCCC(=O)NCc2ccc(OC(C)C)cc2)c(=O)c2c1sc1ccccc12 | inactive: -2.19% | –
96 | N#CC1=C2SCN(C3CCCCC3)CN2C(=O)CC1c1c(F)cccc1Cl (stereo not drawn) | inactive: -18.1% | –
97 | Cc1ccc(S(=O)(=O)c2[nH]c(-c3ccccc3)nc2SCCC(=O)O)cc1 | inactive: -5.96% | –
98 | Cc1cccc(CCNC(=O)c2ccc(CSCc3cccc(Cl)c3)o2)c1 | inactive: -13.1% | –
